Laboratory results taken from the supplement of paper PMC10369915.
The list shows a part of the results. Rule as the data show it: active = 3.2 or more and inactive = the rest. Most of these values are background signal.

What follows are binders tested against SHP2 C-SH2 domain E139D (assay: enrichment score (SH2-bound / input frequency) (ratio); bacterial display of known human phosphotyrosine sites (pTyr-Var adds point mutants) read by sequencing; higher = stronger binding; tyrosines were phosphorylated by kinases first). Settings: peptide library: pTyr-Var.
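Also: displayed peptides selected on beads carrying the immobilized SH2 domain, with library peptides lacking any tyrosine serving as negative controls.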

Binder | enrichment score
DDKEYYSVHNK [MET_Y1235_Y1230D] | inactive: 0.675
FGLTLYPNSRE [MEP1A_Y472_V469L] | inactive: 1.54
AKGMKYVASKK [MET_Y1194_L1195V] | inactive: 0.61
FGVTLYPNSRE [MEP1A_Y472] | inactive: 1.34
HFGCIYHGTLL [MET_Y1093_V1092I] | inactive: 1.55
LARDMHDKEYY [MET_Y1230_Y1230H] | inactive: 0.372
LARDMCDKEFF [MET_Y1230_Y1230C_YF] | inactive: 1.09
HDKEYYSVHNK [MET_Y1235_Y1230H] | inactive: 1.09
RESSGYLRLAF [MEP1A_Y481] | inactive: 1.36
SHNKFYMLVAH [MFSD8_Y134_R139H_YF] | inactive: 2.66
LARDMYDKEYY [MET_Y1230] | inactive: 0.895
MSIWPYLQKID [MFSD8_Y63] | inactive: 2.06
MHDKEYYSVHN [MET_Y1234_Y1230H] | inactive: 0.841
LARDMYDKEFF [MET_Y1230_YF] | inactive: 0.719
ARSHIYTLASC [MEFV_Y741_F743L] | inactive: 0.75
HFGCVYHGTLL [MET_Y1093] | inactive: 1.19
SELVRYDARVH [MET_Y971] | inactive: 0.639
ANKNVYEVEPT [MEGF10_Y1075_R1072K] | inactive: 0.879

Each binder was assayed against SHP2 C-SH2 domain wild-type in the same assay as above. Settings: peptide library: pTyr-Var.

Binder | enrichment score
DDKEYYSVHNK [MET_Y1235_Y1230D] | inactive: 0.661
FGLTLYPNSRE [MEP1A_Y472_V469L] | inactive: 1.32
AKGMKYVASKK [MET_Y1194_L1195V] | inactive: 0.89
FGVTLYPNSRE [MEP1A_Y472] | inactive: 1.17
HFGCIYHGTLL [MET_Y1093_V1092I] | inactive: 1.89
LARDMHDKEYY [MET_Y1230_Y1230H] | inactive: 0.255
LARDMCDKEFF [MET_Y1230_Y1230C_YF] | inactive: 0.969
HDKEYYSVHNK [MET_Y1235_Y1230H] | inactive: 0.664
RESSGYLRLAF [MEP1A_Y481] | inactive: 3.1
SHNKFYMLVAH [MFSD8_Y134_R139H_YF] | inactive: 2.67
LARDMYDKEYY [MET_Y1230] | inactive: 0.81
MSIWPYLQKID [MFSD8_Y63] | inactive: 1.79
MHDKEYYSVHN [MET_Y1234_Y1230H] | inactive: 0.659
LARDMYDKEFF [MET_Y1230_YF] | inactive: 0.669
ARSHIYTLASC [MEFV_Y741_F743L] | inactive: 0.972
HFGCVYHGTLL [MET_Y1093] | inactive: 1.65
SELVRYDARVH [MET_Y971] | inactive: 0.503
ANKNVYEVEPT [MEGF10_Y1075_R1072K] | inactive: 0.889

The binders below were run against SHP2 N-SH2 domain L43F in the same assay as above. Settings: peptide library: pTyr-Var.

Binder | enrichment score
DDKEYYSVHNK [MET_Y1235_Y1230D] | inactive: 0.502
FGLTLYPNSRE [MEP1A_Y472_V469L] | inactive: 1.31
AKGMKYVASKK [MET_Y1194_L1195V] | inactive: 0.738
FGVTLYPNSRE [MEP1A_Y472] | inactive: 1.29
HFGCIYHGTLL [MET_Y1093_V1092I] | inactive: 1.28
LARDMHDKEYY [MET_Y1230_Y1230H] | inactive: 0.298
LARDMCDKEFF [MET_Y1230_Y1230C_YF] | inactive: 0.805
HDKEYYSVHNK [MET_Y1235_Y1230H] | inactive: 0.371
RESSGYLRLAF [MEP1A_Y481] | active: 6.02
SHNKFYMLVAH [MFSD8_Y134_R139H_YF] | inactive: 2.2
LARDMYDKEYY [MET_Y1230] | inactive: 0.974
MSIWPYLQKID [MFSD8_Y63] | inactive: 1.82
MHDKEYYSVHN [MET_Y1234_Y1230H] | inactive: 0.665
LARDMYDKEFF [MET_Y1230_YF] | inactive: 0.896
ARSHIYTLASC [MEFV_Y741_F743L] | inactive: 0.87
HFGCVYHGTLL [MET_Y1093] | inactive: 0.997
SELVRYDARVH [MET_Y971] | inactive: 0.552
ANKNVYEVEPT [MEGF10_Y1075_R1072K] | inactive: 0.62

What follows are binders tested against SHP2 N-SH2 domain T42A in the same assay as above. Settings: peptide library: pTyr-Var.

Binder | enrichment score
DDKEYYSVHNK [MET_Y1235_Y1230D] | inactive: 0.655
FGLTLYPNSRE [MEP1A_Y472_V469L] | inactive: 1.66
AKGMKYVASKK [MET_Y1194_L1195V] | inactive: 0.583
FGVTLYPNSRE [MEP1A_Y472] | inactive: 1.35
HFGCIYHGTLL [MET_Y1093_V1092I] | inactive: 1.24
LARDMHDKEYY [MET_Y1230_Y1230H] | inactive: 0.499
LARDMCDKEFF [MET_Y1230_Y1230C_YF] | inactive: 0.598
HDKEYYSVHNK [MET_Y1235_Y1230H] | inactive: 0.515
RESSGYLRLAF [MEP1A_Y481] | active: 13.3
SHNKFYMLVAH [MFSD8_Y134_R139H_YF] | inactive: 2.31
LARDMYDKEYY [MET_Y1230] | inactive: 0.648
MSIWPYLQKID [MFSD8_Y63] | inactive: 2.09
MHDKEYYSVHN [MET_Y1234_Y1230H] | inactive: 0.495
LARDMYDKEFF [MET_Y1230_YF] | inactive: 0.712
ARSHIYTLASC [MEFV_Y741_F743L] | inactive: 0.883
HFGCVYHGTLL [MET_Y1093] | inactive: 1.02
SELVRYDARVH [MET_Y971] | inactive: 0.594
ANKNVYEVEPT [MEGF10_Y1075_R1072K] | inactive: 0.676

These binders were tested against SHP2 N-SH2 domain T52S in the same assay as above. Settings: peptide library: pTyr-Var.

Binder | enrichment score
DDKEYYSVHNK [MET_Y1235_Y1230D] | inactive: 0.659
FGLTLYPNSRE [MEP1A_Y472_V469L] | inactive: 1.56
AKGMKYVASKK [MET_Y1194_L1195V] | inactive: 0.741
FGVTLYPNSRE [MEP1A_Y472] | inactive: 1.37
HFGCIYHGTLL [MET_Y1093_V1092I] | inactive: 1.32
LARDMHDKEYY [MET_Y1230_Y1230H] | inactive: 0.393
LARDMCDKEFF [MET_Y1230_Y1230C_YF] | inactive: 1.38
HDKEYYSVHNK [MET_Y1235_Y1230H] | inactive: 0.757
RESSGYLRLAF [MEP1A_Y481] | active: 7.99
SHNKFYMLVAH [MFSD8_Y134_R139H_YF] | inactive: 2.5
LARDMYDKEYY [MET_Y1230] | inactive: 0.79
MSIWPYLQKID [MFSD8_Y63] | inactive: 2.18
MHDKEYYSVHN [MET_Y1234_Y1230H] | inactive: 0.61
LARDMYDKEFF [MET_Y1230_YF] | inactive: 1.01
ARSHIYTLASC [MEFV_Y741_F743L] | inactive: 0.747
HFGCVYHGTLL [MET_Y1093] | inactive: 1.26
SELVRYDARVH [MET_Y971] | inactive: 0.544
ANKNVYEVEPT [MEGF10_Y1075_R1072K] | inactive: 0.696

These binders were tested against SHP2 N-SH2 domain wild-type in the same assay as above. Settings: peptide library: pTyr-Var.

Binder | enrichment score
DDKEYYSVHNK [MET_Y1235_Y1230D] | inactive: 0.741
FGLTLYPNSRE [MEP1A_Y472_V469L] | inactive: 1.59
AKGMKYVASKK [MET_Y1194_L1195V] | inactive: 0.893
FGVTLYPNSRE [MEP1A_Y472] | inactive: 1.19
HFGCIYHGTLL [MET_Y1093_V1092I] | inactive: 1.85
LARDMHDKEYY [MET_Y1230_Y1230H] | inactive: 0.331
LARDMCDKEFF [MET_Y1230_Y1230C_YF] | inactive: 0.912
HDKEYYSVHNK [MET_Y1235_Y1230H] | inactive: 0.979
RESSGYLRLAF [MEP1A_Y481] | inactive: 2.8
SHNKFYMLVAH [MFSD8_Y134_R139H_YF] | inactive: 2.53
LARDMYDKEYY [MET_Y1230] | inactive: 0.775
MSIWPYLQKID [MFSD8_Y63] | inactive: 1.58
MHDKEYYSVHN [MET_Y1234_Y1230H] | inactive: 0.56
LARDMYDKEFF [MET_Y1230_YF] | inactive: 0.543
ARSHIYTLASC [MEFV_Y741_F743L] | inactive: 0.872
HFGCVYHGTLL [MET_Y1093] | inactive: 1.42
SELVRYDARVH [MET_Y971] | inactive: 0.582
ANKNVYEVEPT [MEGF10_Y1075_R1072K] | inactive: 0.812
